# Screen size: about 48,000 compounds; about 120 (0.25%) were called active. About 4% were inconclusive and are not listed. Calls follow the shape of the dose curve; as a rule, active = well fitted activation curve with a large enough effect; inconclusive = small, poorly fitted or top-dose-only effect, or another doubt; inactive = no such curve, though single readings can be large or run the other way. The list shows a part of the results.
# Experiment: Primary qHTS for Identification of Small Molecule Activators of Huntingtin-Antisense Promoter Activity; also: nearly all actives have a fitted effect of over 55% in size
# Conditions: HEK293 HTT-AS promoter firefly luciferase reporter, 24 h; series mostly up to 57.5 µM; activity change, positive = activation: at the top concentration
# In short: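 Firefly luciferase readout (Dual-Glo, 10 min RT) after 24 h, 37 °C compound exposure (final up to 57.5 uM) of HEK293 reporter cells cultured 24 h beforehand; PTC124 at 50 uM final as control inhibitor; activity scaled vehicle 0%, zero RLU -100%.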
# Potency is read from the fitted curve at half-maximal effect.
SMILES,"activity change, positive = activation",Potency
O=C(NCCn1cc(SCc2ccc(F)cc2)c2ccccc21)c1cccs1,inactive: -47.7%,
CCn1cc(C(=O)N2CCN(c3cc(Cl)ccc3C)CC2)c(=O)c2cc(S(=O)(=O)N3CCCCC3)ccc21,"inactive: -1.16% [at 11.5 µM, percent change from vehicle, -100% = no light]",
COCCCN1C(=O)c2oc3ccccc3c(=O)c2C12C(=O)N(C)c1ccccc12 (stereo unspecified),inactive: -8.61%,
COc1ccc(CC(=O)N2CCc3cc(OC)c(OC)cc3C2COc2ccc3c(C)cc(=O)oc3c2)cc1OC (stereo unspecified),inactive: 0%,
O=C(COc1ccccc1F)Nc1ccc(OCc2cc(=O)n3ccccc3n2)cc1,inactive: 12.4%,
CCOc1ccc(NC(=O)CCc2c(C)nc3c(-c4ccccc4)c(C)nn3c2C)cc1,inactive: -21.3%,
COC(=O)c1ccc(Cn2c(SCc3ccc(F)cc3)nc3ccncc32)cc1,inactive: -9.75%,
O=c1ccc2cc(S(=O)(=O)Nc3ccc(OC(F)(F)F)cc3)ccc2[nH]1,inactive: -15.3%,
Cc1ccc(CNC(=O)CSC2=Nc3ccccc3N=C(c3ccc(F)cc3)C2)cc1,inactive: -22.5%,
COc1ccc(CNC(=O)c2ccc(NC(=O)N3CCSc4ncccc43)cc2)cc1,inactive: -5.34%,
CCCNC(=O)CN1CCN(c2ccc(NC(=O)c3ccc(OC)cc3)cc2C(=O)O)CC1,inactive: 0%,
Cc1ccccc1C(=O)N1CCC(C(=O)Nc2ccc(F)cc2F)CC1,inactive: 12.5%,
Cc1nc(N2CCOCC2)c2c(C(=O)N3CCN(c4ccccc4)CC3)c(C)oc2n1,inactive: 0.994%,
CCOC(=O)c1cccc(NC(=O)NC(C)c2c(-n3cccc3)sc3c2CCN(C)C3)c1 (stereo unspecified),inactive: -23.6%,
Cc1cc2c(cc3c(SCC(=O)Nc4ccc(Cl)cc4F)nncn32)o1,inactive: -11%,
Cc1ccc2c(c1)c1c3n2CCN(C(=O)c2cccc(C(F)(F)F)c2)C3CCC1 (stereo unspecified),inactive: -32%,
CCc1cccc(C)c1Nc1c(-c2ccsc2)nc2ncccn12,inactive: -25.6%,
Cc1ccc(C)c(Cn2c3ccccc3c3cnn(CC(=O)NCCc4ccccc4)c(=O)c32)c1,inactive: 3.3%,
COc1ccc(N2CCN(Cc3nnc(-c4ccc5c(c4)OCO5)o3)CC2)cc1,inactive: 1.53%,
Cc1cccc(CNC(=O)CCCN2C(=O)CCn3nc(-c4cccn4C)cc32)c1,inactive: 9.28%,
Cc1ccc(-n2nc(C)c3nc(CCC(=O)Nc4cccc(F)c4)c(=O)n(C)c32)cc1,inactive: -4.03%,
COc1ccc2c(c1)c(CC(=O)OCC(=O)O)c(C)n2C(=O)c1ccc(Cl)cc1,inactive,
COc1ccc(CNC(=O)C2CCCN(c3nnc(C)c4c(C)n(-c5ccc(C)cc5)nc34)C2)cc1 (stereo unspecified),inactive: -18.2%,

SMILES,"activity change, positive = activation",Potency
CCOc1c(Cl)cc(C(=O)N(Cc2ccc(N(C)C)cc2)Cc2ccco2)cc1Cl,inactive: -12%,
CCC1CN(C(=O)N2CCC(C(=O)N3CCN(c4ccccc4F)CC3)CC2)c2ccccc2O1 (stereo unspecified),inactive: -32.3%,
CCC(Sc1nc2ncccc2o1)C(=O)Nc1ccc(OC)c(OC)c1 (stereo unspecified),inactive: -1.47%,
Cc1ccc2c(=O)cc(C(=O)Nc3sc4c(c3C(=O)NCC3CCCO3)CCCC4)oc2c1 (stereo unspecified),"inactive: 10.9% [at 11.5 µM, percent change from vehicle, -100% = no light]",
COc1ccc(C2CC(=O)c3cc(-c4nc(-c5cccc(Cl)c5)cs4)c(=O)[nH]c3C2)cc1 (stereo unspecified),inactive: -8.78%,
CSc1oc(-c2cccs2)nc1S(=O)(=O)c1ccc(Br)cc1,inactive: -8.98%,
O=S(=O)(c1ccc(Cl)cc1Cl)n1ccnc1,inactive: -3.38%,
CCOc1ccccc1N(C)C(=O)c1c2c(nc3ccccc13)C(=O)N(C1CCCCC1)C2,inactive: -17%,
CC(C)CCn1c(=O)c2cccnc2n(CC(=O)Nc2ccccc2F)c1=O,inactive: -26.6%,
Cn1c2ccccc2c2cnn(CC(=O)Nc3ccccc3F)c(=O)c21,inactive: -9.03%,
COCCc1ccc(OCC2CO2)cc1 (stereo unspecified),inactive: 2.97%,
Cc1cc(C)cc(NC(=O)c2c(C)oc3nc(C)nc(N4CCCC4)c23)c1,inactive: -4.52%,
CCc1ccc(OCC(=O)Nc2ncn[nH]2)c(Br)c1,,active: 25.1 µM
CCOc1ccc(Nc2nn(-c3ccc(OC(F)(F)F)cc3)nc2C(C)=O)cc1,inactive: -12.9%,
COc1cccc(Cn2c(-c3nonc3NC(C)=O)nc3ccccc32)c1,inactive: -40.9%,
COc1ccccc1CNC(=O)CCNS(=O)(=O)c1ccc2c(c1)oc(=O)n2C,inactive: -3.32%,
CC(=O)OC[C@H]1O[C@@H](OC(C)=O)[C@H](OC(C)=O)[C@@H]1OC(C)=O,inactive: 1.93%,
CNC(=O)c1ccc2c(c1)N(Cc1ccccc1Cl)C(=O)c1ccccc1S2,inactive: -26.7%,
O=C(COc1ccc(F)cc1)NCc1ccc2c(c1)CCN2C(=O)c1ccccc1,inactive: 9.66%,
Cc1cccc(NC(=O)c2sc3nc(-c4cc5ccc(O)cc5oc4=O)[nH]c(=O)c3c2C)c1,inactive: -21.2%,
O=C(Cn1c(=O)nc(-c2ccccc2F)c2cc(Cl)ccc21)NCCCc1ccccc1,inactive: -16.2%,
CC(=O)OC1C(C)OC(Oc2c(-c3ccc(O)cc3)oc3cc(O)cc(O)c3c2=O)C(O)C1OC(C)=O (stereo unspecified),inactive: 2.07%,
COc1ccc2cc3[n+](cc2c1OC)CCc1cc2c(cc1-3)OCO2,inactive,

# From PubChem BioAssay AID1508624 (National Center for Advancing Translational Sciences (NCATS), 2021)
